Laboratory results as given in a collection of fitness landscapes (doi:10.1016/j.celrep.2020.107928).
Whole data set: some 81,000 sequences, median “one-hybrid fitness for binding parS DNA” near -0.17, cut for the highest 2% near 0.51. This is one part of the list.

B1: Caulobacter ParB omega fusion; a variant is named by its letters at X, in order, B8GW30 (parent)
chain: MESVVVGEPGMSEGRRGLGRGLSALLGEVDAAPAQAPGEQLGGSREAPIEILQRNPDQPRRTFREEDLEDLSNSIREKGVLQPILVRPSPDTAGEYQIVAGERAWRAAQRAGLKTVPIMVRELDDLAVLEIGIIENVQRADLNVLEEALSYKVLMEKFERTQENIAQTIGKSXSHVANXMRLLXLPDEVQSYLVSGELTAXHARAIAAAADPVALAKQIIEGGLSVRETEALARKAPNLSAGKSKGGRPPRVKDTDTQALESDLSSVLGLDVSIDHRGSTGTLTITYATLEQLDDLCNRLTRGI

Variants of: B1
Assay: one-hybrid fitness for binding parS DNA (scaled: cognate 1, non-cognate 0); higher = stronger binding
Conditions: with parS DNA site
Summary of the method: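 Caulobacter ParB libraries with four specificity codons randomised were screened by bacterial one-hybrid selection in the E. coli USO strain, using a HIS3 reporter whose site lies 19 bp from the promoter. Selection ran for 48 hours at 37°C on M9 lacking histidine, with 0.1 mM IPTG and 5 mM 3-AT. Plasmids were Illumina-sequenced before and after selection, three replicate libraries were pooled, and variants with under 10 reads were dropped. Fitness is the log change in each variant's read ratio to wild type, rescaled against the cognate and non-cognate sites.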

Row | Variant | one-hybrid fitness for binding parS DNA
1 | YAIV | ≤ 0.2
2 | SKEC | ≤ 0.2
3 | NFNS | ≤ 0.2
4 | YTYC | ≤ 0.2
5 | AQPT | ≤ 0.2
6 | QTFF | ≤ 0.2
7 | RWRR | ≤ 0.2
8 | HPRH | ≤ 0.2
9 | FDKC | ≤ 0.2
10 | IRAE | ≤ 0.2
11 | RKTP | ≤ 0.2
12 | HHIY | ≤ 0.2
13 | KGTQ | ≤ 0.2
14 | RQCP | ≤ 0.2
15 | RFWP | ≤ 0.2
16 | NEHM | ≤ 0.2
17 | DMGR | ≤ 0.2
18 | DQPT | ≤ 0.2
19 | KFSY | ≤ 0.2
20 | RGVT | 0.33
21 | VQDS | ≤ 0.2
22 | GREG | ≤ 0.2
23 | RGVE | ≤ 0.2
24 | TAKG | ≤ 0.2
25 | PHGS | ≤ 0.2

Row | Variant | one-hybrid fitness for binding parS DNA
26 | HNYG | ≤ 0.2
27 | PTRD | ≤ 0.2
28 | PIIA | ≤ 0.2
29 | FKQV | ≤ 0.2
30 | HGHM | ≤ 0.2
31 | SKYR | ≤ 0.2
32 | IQNR | ≤ 0.2
33 | LYKP | ≤ 0.2
34 | PNID | ≤ 0.2
35 | GPES | ≤ 0.2
36 | PVSV | ≤ 0.2
37 | QGMF | ≤ 0.2
38 | VGRY | ≤ 0.2
39 | CVVE | ≤ 0.2
40 | QRNR | ≤ 0.2
41 | ADMS | ≤ 0.2
42 | RRLM | ≤ 0.2
43 | QEKF | ≤ 0.2
44 | CTRI | ≤ 0.2
45 | DETA | ≤ 0.2
46 | MGMD | ≤ 0.2
47 | GQNL | ≤ 0.2
48 | HLTR | ≤ 0.2
49 | PDSQ | ≤ 0.2
50 | ERCG | ≤ 0.2

Row | Variant | one-hybrid fitness for binding parS DNA
51 | QHKT | ≤ 0.2
52 | NHHT | ≤ 0.2
53 | HYHR | ≤ 0.2
54 | PCNC | ≤ 0.2
55 | QHNM | ≤ 0.2
56 | WHFR | ≤ 0.2
57 | NKMT | ≤ 0.2
58 | NRNG | ≤ 0.2
59 | SIPT | ≤ 0.2
60 | LAFP | ≤ 0.2
61 | TPIS | ≤ 0.2
62 | KTCR | ≤ 0.2
63 | LNPC | ≤ 0.2
64 | SHNI | ≤ 0.2
65 | PADT | ≤ 0.2
66 | KQVL | ≤ 0.2
67 | FHML | ≤ 0.2
68 | CMTS | ≤ 0.2
69 | GTHK | ≤ 0.2
70 | DEYI | ≤ 0.2
71 | WSPW | ≤ 0.2
72 | SEMC | ≤ 0.2
73 | NLHC | ≤ 0.2
74 | GYNK | ≤ 0.2
75 | EWPA | ≤ 0.2

Row | Variant | one-hybrid fitness for binding parS DNA
76 | AKPP | ≤ 0.2
77 | FRDM | ≤ 0.2
78 | VSIC | ≤ 0.2
79 | PPRS | ≤ 0.2
80 | TSGD | ≤ 0.2
81 | QKAC | ≤ 0.2
82 | RRYN | 0.557
83 | GGLS | ≤ 0.2
84 | DSRF | ≤ 0.2
85 | TPNL | ≤ 0.2
86 | AILI | ≤ 0.2
87 | MSTC | ≤ 0.2
88 | SPSW | ≤ 0.2
89 | PTAT | ≤ 0.2
90 | DCPG | ≤ 0.2
91 | VPRL | ≤ 0.2
92 | TSDR | ≤ 0.2
93 | LLPL | ≤ 0.2
94 | NNAT | ≤ 0.2
95 | GVMT | ≤ 0.2
96 | TLAC | ≤ 0.2
97 | TKKA | ≤ 0.2
